Drawing on the RNAGym collection of RNA variant scans (doi:10.1101/gad.245936.114), this text covers nonsense suppression for 167 variants.

The chains are these.
B1: tRNA (parent)
chain: CUCUCGGUAGCCAAGUUGGUUUAAGGCGCAAGACUUUAAUUUAUCACUACGAAAUCUUGAGAUCGGGCGUUCGACUCGCCCCCGGGAGAUUUUUUCCUCGAGCAA

This sample is rich in variants without activity.

Variants of B1 are the subject of this series. Put plainly: nonsense suppression (GFP-seq) (ratio to wild type); higher = more function; SUP4oc tRNA, yeast GFP reporter sort-seq. The essentials:
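Nonsense suppression (GFPSEQ) is the median GFP/RFP ratio of each sorting bin, weighted by the variant's estimated share of cells in that bin and expressed relative to the unmutated parent tRNA. Yeast strains carried genome-integrated variants of an ochre-suppressor tRNA from a library with ~3% random mutations, plus a galactose-driven GFP ochre reporter and RFP, and were grown in raffinose/galactose medium containing 80 mg/L adenine. Cells were sorted into GFP/RFP bins, each bin was Illumina-sequenced (phred ≥30), and variants were kept only with ≥100 reads and ≥30 cells.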
For C12G A31U U55C C80G, the nonsense suppression is at most 0.026.

C5U U17C A24G: the nonsense suppression was at most 0.026. For A30U C72U G85U the value was at most 0.026; for A60U G86A, at most 0.026; for U55G A74C, at most 0.026. As for A33G U63G U70A, the nonsense suppression is at most 0.026. Next, U8C G10U A14C U17G A74G: at most 0.026; U8G U21A C82U: at most 0.026. Next, C11A G66U U76A: at most 0.026. For C3U U8A A54G the value was at most 0.026; for G73U C81U, 0.0263. In the case of C1G G6C G66A U70G, the nonsense suppression was at most 0.026.

Turning to U16G G73C, the nonsense suppression was at most 0.026. Next, A31U U55C: 0.0547.

Consider C11U A24G C72G C79U A87C, for which the nonsense suppression was at most 0.026. For the variant U21C C64G C75A, the nonsense suppression was at most 0.026. Turning to C11G G15U C56A, the nonsense suppression is at most 0.026. For the variant A9U A60C, the nonsense suppression is at most 0.026. On to U4A U17A U22G A24C, for which the nonsense suppression is at most 0.026. In the case of A89C, the nonsense suppression was at most 0.026.

For U20G A24G G59C, the nonsense suppression was at most 0.026. Take G10U C82G: the nonsense suppression was at most 0.026. Consider G6C C82U, for which the nonsense suppression is at most 0.026. Next, G6C C82G: at most 0.026; G10U G18U: at most 0.026. For the variant U2G C5G C11U A24C, the nonsense suppression was at most 0.026. For the variant G19U C56U, the nonsense suppression is at most 0.026.

In the case of C5A G28U, the nonsense suppression is at most 0.026. C5A G28C: the nonsense suppression was at most 0.026. Next, C5A A30G U63G: at most 0.026; G6U C72U: at most 0.026. Regarding C34G U71G A87U, the nonsense suppression was at most 0.026.

For the variant G65C G67U, the nonsense suppression was at most 0.026. Next, U8C G69A: at most 0.026; U16G U57A A74G C79A: at most 0.026; A9U A13U G86A: at most 0.026. For C1U G6U A9G G65C C75U G78A C79G the value was at most 0.026. Next, C5G C56G C82A: at most 0.026; C1G A9G C27U: at most 0.026; G28A A33G: 0.161. On to C56U G59U U63C, for which the nonsense suppression is at most 0.026. Next, G6C C34G A54U: at most 0.026; U21C A23C U71G G78A: at most 0.026; A9G A33U U63G C80G: at most 0.026.

As for C3A A33U G73C, the nonsense suppression was at most 0.026. For C12U G19U C27A G69A the value was at most 0.026; for C5G C81A, at most 0.026. As for G26C C29G, the nonsense suppression came out at 0.0685. With A24C G67C, the nonsense suppression is at most 0.026. For C34A A60U U63C A87G, the nonsense suppression is at most 0.026. On to G6A G26U A54G, for which the nonsense suppression was at most 0.026. Next, C1A C29A: at most 0.026; U4A C68G C77G: at most 0.026.

Consider U8C A62C C75A, for which the nonsense suppression was at most 0.026.

Turning to A30G U57C U63G G85A, the nonsense suppression is at most 0.026.

As for G10U U57G C75A, the nonsense suppression is at most 0.026.

C1G A60G: the nonsense suppression was at most 0.026. Next, G26U A33G A60G G86U G88C: at most 0.026; U21A A54G A60C G66A: at most 0.026.

Regarding U4G G15U, the nonsense suppression is at most 0.026. For C5U C12U G84C, the nonsense suppression was at most 0.026. As to G10C, the nonsense suppression was at most 0.026.

C11U G25C A74U: the nonsense suppression was at most 0.026. For U16A A23G G66C the value was at most 0.026; for U4C C12G G32U, at most 0.026. On to C29A U63C, for which the nonsense suppression is at most 0.026.

Regarding G66C G69C, the nonsense suppression is at most 0.026.

As for U17C U35G G61C U76C, the nonsense suppression is at most 0.026. In the case of G10U U16C C34A U70G G73U G78A C82G, the nonsense suppression was at most 0.026.

In the case of U21C G25U C27U C64A G88C, the nonsense suppression is at most 0.026. Next, C1A C72G: at most 0.026; C1A C72U: at most 0.026; U2C C68G: at most 0.026. For C11U G69C the value was at most 0.026; for C5U G10U U17A U22G A33U, at most 0.026. For C3A G10C U22G A62U the value was at most 0.026; for C5A U8C, at most 0.026; for A54C U55A C80U, at most 0.026. Take G18A A31G C34G G78A: the nonsense suppression was at most 0.026.

Consider G15A G32U G59A G61A G65U, for which the nonsense suppression is at most 0.026. As to A54U U76G G86A, the nonsense suppression is at most 0.026. For G25C A33U the value was at most 0.026; for C29U G59U G65C G84C, at most 0.026; for G7C A89C, at most 0.026. For U35C A74U the value was at most 0.026; for U35C A74G, at most 0.026. With G6U U8G, the nonsense suppression was at most 0.026. Next, C27A A33C U57C C81U: at most 0.026; A62G C79G G84C A87U: at most 0.026.

Consider C27U G28C A54G G67U, for which the nonsense suppression is at most 0.026.

Take A24G C27G: the nonsense suppression is at most 0.026. For A33C C34U A87G the value was at most 0.026. For C12G G86A the value was at most 0.026. Next, C11G G18C G67C G88U: at most 0.026; C11A U17C C72A: at most 0.026. For G10A G66U C82G, the nonsense suppression was at most 0.026. C11A U21G G86A: the nonsense suppression is at most 0.026. For C12G A31U the value was at most 0.026; for G28U C82U, at most 0.026; for C34G U55C U71G C75A, at most 0.026. Turning to U4G A60C C68G C79U C83A, the nonsense suppression was at most 0.026. C5G C77A: the nonsense suppression was at most 0.026. On to A31G U63C G88C, for which the nonsense suppression was at most 0.026. Next, U4A U55G G66A U76C: at most 0.026; U35C A62G G84U: at most 0.026. For G19U A31G U58G the value was at most 0.026; for G19A C29U, at most 0.026; for C11U A14C U63G C77A, at most 0.026. Turning to G18A A89G, the nonsense suppression is at most 0.026. For U57C A60U the value was 0.0266.

As for C11G A23G G28C U57G A89U, the nonsense suppression was at most 0.026. Next, U8G C11A A23U G84A: at most 0.026. For U22A G73A the value was 0.325; for C34G U57C U71A, at most 0.026; for C3A A89C, at most 0.026. Take A9U A24C U58G A62C G88A: the nonsense suppression is at most 0.026. For A14U A54G the value was at most 0.026. Next, C1U G69C G73C G86U: at most 0.026; A33U C75A A89U: at most 0.026; U17C U58G G88U: at most 0.026. In the case of A14C G28C G67A C81G, the nonsense suppression was at most 0.026. On to C29G G85C, for which the nonsense suppression is at most 0.026. With G59U A60G G65C C72U G78U, the nonsense suppression is at most 0.026. C5U A74U: the nonsense suppression was at most 0.026. With A23G C27A C29A, the nonsense suppression is at most 0.026. Next, A9C U57A: at most 0.026; U4C G78A: 0.978. Turning to G15U, the nonsense suppression is at most 0.026. For G19A U55A the value was at most 0.026; for G7A A62C C72U, at most 0.026; for U58G C83U, at most 0.026. A13U C34G: the nonsense suppression was at most 0.026. Consider G32A U57G G61C, for which the nonsense suppression was at most 0.026. Regarding U63A G66C G73C, the nonsense suppression was at most 0.026. Next, U2A G7U: at most 0.026. Turning to A13G G19U G66C G73A A74C, the nonsense suppression was at most 0.026. For U2G C3U C72U the value was at most 0.026. Turning to C82G C83U, the nonsense suppression is at most 0.026.

As to U55C C77A, the nonsense suppression worked out at 0.0479. Turning to A9G A14U, the nonsense suppression was at most 0.026.

In the case of C29U G88U, the nonsense suppression was at most 0.026. For A13C A23G A31U the value was at most 0.026; for C3G A30U A31G G65C, at most 0.026. For the variant U4A G59U A62U C83G, the nonsense suppression was at most 0.026. Turning to G10C U17A, the nonsense suppression was at most 0.026. Take C1G A89G: the nonsense suppression is at most 0.026. Next, U22A C56G G69C A74G: at most 0.026; G65A G67A A87G: at most 0.026; A9G U20A C34G C56A U58G G65C: at most 0.026. Next, C3U C27G A89U: at most 0.026; G10A A60U C68A: at most 0.026; G18U A31U G32A G67A G86C G88A: at most 0.026.

As for A14U A62C C83U, the nonsense suppression is at most 0.026. Next, C1U U8G A9G: at most 0.026; G6C U16G: at most 0.026; C11A A33U C79G: at most 0.026. Next, C5U G15U U57G G59U G88C: at most 0.026; U2G G65A: at most 0.026; G32U U55G U71G G86U: at most 0.026. U20G A62U A87U: the nonsense suppression is at most 0.026. Take U21A C34A: the nonsense suppression was at most 0.026. C5G C34U A62U: the nonsense suppression was at most 0.026. For U2G G10A C11G U20G A33G the value was at most 0.026. On to C75G C82A, for which the nonsense suppression is at most 0.026. Turning to C11G A24C G26C, the nonsense suppression is at most 0.026. As to C5U G61A G86A, the nonsense suppression is at most 0.026.

G10U U57C G67C: the nonsense suppression is at most 0.026.
